The target in the assay is Genome polyprotein (dengue virus type 2) (UniProt P29990).
Setting [1] is: Thailand/16681/1984, Concentration 25.0 uM, Number of replicates 1.0.

About 110 (5.5%) of roughly 2,000 compounds showed an effect of 50% or more. The list shows a part of the results.

In the case of `CC1(C)CC(O)CC(C)(C)N1C(=O)C1CCN(c2ccc(C=O)cc2)CC1`, under setting [1], the inhibition turned out to be 15.1%.

Consider `C[C@@H](CNC(=O)c1ccn([C@H]2CCCNC2)n1)c1cccc(=O)[nH]1`, for which the inhibition (Thailand/16681/1984, Concentration 49.5 uM, Number of replicates 2.0, Standard deviation 1.5269022655862485 %) was -4.55%; the inhibition (Thailand/16681/1984, Concentration 99.01 uM, Number of replicates 2.0, Standard deviation 4.327641102496904 %) is -0.849%; the inhibition (Thailand/16681/1984, Concentration 198.0 uM, Number of replicates 2.0, Standard deviation 3.1874263939292535 %) is -1.67%.

As to `N#CC1(c2ccccc2)CCN(Cc2c[nH]c3ccccc23)CC1`, the inhibition was -0.312% (Thailand/16681/1984, Concentration 49.5 uM, Number of replicates 2.0, Standard deviation 1.499116576383805 %); 0.831% (Thailand/16681/1984, Concentration 99.01 uM, Number of replicates 2.0, Standard deviation 1.285596358654136 %); 2.09% (Thailand/16681/1984, Concentration 198.0 uM, Number of replicates 2.0, Standard deviation 1.1449542902700944 %).

Turning to `CC(=O)N[C@@H](CCCCN)C(=O)Nc1cccc(Cc2cccc3c(CO)cc(C)nc23)c1`, the inhibition was -3.5% (Thailand/16681/1984, Concentration 49.95 uM, Number of replicates 2.0, Standard deviation 0.858525740782908 %) and 6.38% (Thailand/16681/1984, Concentration 99.9 uM, Number of replicates 2.0, Standard deviation 1.064156674332285 %).

On to `COc1cccc(C2CCN(Cc3c[nH]c4ccccc34)CC2)c1`, for which the inhibition was determined as 2.06% (Thailand/16681/1984, Concentration 49.5 uM, Number of replicates 2.0, Standard deviation 0.36080661034090755 %); 4.21% (Thailand/16681/1984, Concentration 99.01 uM, Number of replicates 2.0, Standard deviation 0.6028563828074571 %); 7.53% (Thailand/16681/1984, Concentration 198.0 uM, Number of replicates 2.0, Standard deviation 0.9368600420126497 %).

In the case of `O=Cc1ccc(N2CCC(C(=O)N3CCCCC[C@H]3c3ccco3)CC2)cc1`, the inhibition under setting [1] stood at 13.4%.

Regarding `Cc1cc(CO)c2cccc(Cc3cccc(C(=O)Nc4ccc(C(=O)O)o4)c3)c2n1`, the inhibition stood at 35.3% (Thailand/16681/1984, Concentration 49.95 uM, Number of replicates 2.0, Standard deviation 0.4498774840540114 %) and 80.5% (Thailand/16681/1984, Concentration 99.9 uM, Number of replicates 2.0, Standard deviation 0.6611646932609445 %).

As for `CC(C)(CO)NC(=O)c1cc(Cl)cc(NC(=O)COc2cc(Cl)cc(Cl)c2)c1`, the inhibition was 9.17% (Thailand/16681/1984, Concentration 49.5 uM, Number of replicates 2.0, Standard deviation 14.819601369296757 %); -0.479% (Thailand/16681/1984, Concentration 99.01 uM, Number of replicates 2.0, Standard deviation 0.9513012697965588 %); 2.17% (Thailand/16681/1984, Concentration 198.0 uM, Number of replicates 2.0, Standard deviation 0.47387842840702515 %).

Turning to `COc1cccc(CC(=O)Nc2cccc(C(=O)O)c2)c1`, the inhibition (Thailand/16681/1984, Concentration 49.5 uM, Number of replicates 2.0, Standard deviation 1.075367651742486 %) was -1.33%; the inhibition (Thailand/16681/1984, Concentration 99.01 uM, Number of replicates 2.0, Standard deviation 0.5309986192009905 %) is -1.52%; the inhibition (Thailand/16681/1984, Concentration 198.0 uM, Number of replicates 2.0, Standard deviation 0.10935133662395478 %) is -0.132%.

In the case of `O=C(N[C@H]1CCOC1)c1cc(Cl)ccc1NS(=O)(=O)c1ccc(Oc2ccccc2Cl)cc1`, the inhibition stood at 64.1% (Thailand/16681/1984, Concentration 49.5 uM, Number of replicates 2.0, Standard deviation 0.8156312071794307 %); 63.6% (Thailand/16681/1984, Concentration 99.01 uM, Number of replicates 2.0, Standard deviation 0.42939613872644544 %); 53% (Thailand/16681/1984, Concentration 198.0 uM, Number of replicates 2.0, Standard deviation 0.707503298737338 %).

Regarding `CNC(=O)c1cc(Cl)ccc1NS(=O)(=O)c1cnn(CC(C)C)c1`, the inhibition (Thailand/16681/1984, Concentration 49.5 uM, Number of replicates 2.0, Standard deviation 0.9417274972534758 %) was -7.39%.

On to `Cc1cc(CO)c2cccc(Cc3cccc(NC(=O)C[C@H]4CCCN4)c3)c2n1`, for which the inhibition by setting is: (Thailand/16681/1984, Concentration 49.95 uM, Number of replicates 2.0, Standard deviation 0.1263380443971036 %) -4.58%; (Thailand/16681/1984, Concentration 99.9 uM, Number of replicates 2.0, Standard deviation 0.8674748654209231 %) -4.17%.

With `CNC(=O)c1cc(Cl)ccc1NS(=O)(=O)c1ccc(Cl)cc1C(=O)OC`, the inhibition was -3.73% (Thailand/16681/1984, Concentration 49.5 uM, Number of replicates 2.0, Standard deviation 2.167906435330492 %); 0.537% (Thailand/16681/1984, Concentration 99.01 uM, Number of replicates 2.0, Standard deviation 1.3330253926635593 %); 6.85% (Thailand/16681/1984, Concentration 198.0 uM, Number of replicates 2.0, Standard deviation 1.9740117132174586 %).

In the case of `O=Cc1ccc(N2CCC(C(=O)Nc3n[nH]cc3Br)CC2)cc1`, the inhibition under setting [1] was determined as 13.1%.

Take `COc1ccc(CNC(=O)C2CCN(c3ccc(C=O)cc3)CC2)c(Cl)c1`: the inhibition under setting [1] was 11.6%.

In the case of `O=Cc1ccc(N2CCC(C(=O)NCc3ccc(F)c(Cl)c3)CC2)cc1`, under setting [1], the inhibition amounted to 10.7%.

Turning to `O=Cc1ccc(N2CCC(C(=O)Nc3ccc(-n4ccnc4)cc3)CC2)cc1`, the inhibition under setting [1] was found to be 14%.

For the compound `O=Cc1ccc(N2CCC(C(=O)Nc3ccc4nccnc4c3Br)CC2)cc1`, under setting [1], the inhibition was determined as 15.2%.

On to `Cc1cnccc1NC(=O)C1(C(=O)Nc2ccc(F)cc2)CC1`, for which the inhibition (Thailand/16681/1984, Concentration 49.5 uM, Number of replicates 2.0, Standard deviation 0.7679495502283891 %) is -1.86%; the inhibition (Thailand/16681/1984, Concentration 99.01 uM, Number of replicates 2.0, Standard deviation 0.5589540337623873 %) is -1.99%; the inhibition (Thailand/16681/1984, Concentration 198.0 uM, Number of replicates 2.0, Standard deviation 1.058583807287932 %) is -1.28%.

`Cc1cc(CO)c2cccc(Cc3cccc(NC(=O)c4ccc(O)cc4)c3)c2n1`: the inhibition reads like this: (Thailand/16681/1984, Concentration 49.95 uM, Number of replicates 2.0, Standard deviation 2.5506525665903212 %) 1.47%; (Thailand/16681/1984, Concentration 99.9 uM, Number of replicates 2.0, Standard deviation 2.3754855648054365 %) 4.66%.

For the compound `CNC(=O)c1cc(Cl)c(F)cc1NS(=O)(=O)c1ccc(Oc2ccccc2Cl)cc1`, the inhibition was found to be 98.6% (Thailand/16681/1984, Concentration 49.5 uM, Number of replicates 2.0, Standard deviation 0.030615470758313425 %); 99.7% (Thailand/16681/1984, Concentration 99.01 uM, Number of replicates 2.0, Standard deviation 0.03013533386007732 %); 98.7% (Thailand/16681/1984, Concentration 198.0 uM, Number of replicates 2.0, Standard deviation 0.00477978979592347 %).

Consider `Cn1cc(NC(=O)c2ccccc2C(F)(F)F)c(-c2ccc3nncn3c2)n1`, for which the inhibition (Thailand/16681/1984, Concentration 49.5 uM, Number of replicates 2.0, Standard deviation 0.5155052691009917 %) is -2.16%; the inhibition (Thailand/16681/1984, Concentration 99.01 uM, Number of replicates 2.0, Standard deviation 1.0676335364533427 %) was -1.41%; the inhibition (Thailand/16681/1984, Concentration 198.0 uM, Number of replicates 2.0, Standard deviation 0.4436497392774962 %) was -0.287%.

Source of the values: ChEMBL document CHEMBL5606460, “ASAP - DENV-2 NS2B-NS3 protease fluorescence single point” (2024).
